Assay results as given in the RNAGym collection of RNA variant scans (doi:10.1073/pnas.2313332121).
Variants at the background level are over-represented here.

B1: TPR 5TU (parent)
chain: GGAUCUUCUCGAUCUAACAAAAAAGACAAAUCUGCCACAAAGCUUGAGAGCAUCUUCGGAUGCAGAGGCGGCAGCCUUCGGUGGCGCGAUAGCGCCAACGUUCUCAACUAUGACACGCAAAACGCGUGCUCCGUUGAAUGGAGUUUAUCAUG

Variants of: B1
Assay: polymerase ribozyme fitness, log enrichment relative to wild type (log ratio); higher = more active; in vitro selection for triplet polymerase activity
Procedure, shortened: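 To select mutant libraries of each subunit of a heterodimeric triplet polymerase ribozyme, built by PCR and transcribed, each was annealed with a biotinylated primer, partner subunit and triplets, then incubated frozen at −7 °C. Extended constructs were gel-excised, captured on streptavidin beads and amplified by RT-PCR, in one round carried out in triplicate. Illumina sequencing of input and output libraries kept genotypes with ≥10 input reads and ≥1 read per output. Fitness is the base-2 logarithm of genotype enrichment relative to wild-type enrichment, from inverse-variance-weighted replicate averages.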

Polymerase ribozyme fitness (log ratio), ≤ -4.2:
GGAUCCUCUCGAUCUAACAAAAAAGACAAAGCUGCCACAAAGCUUCCGAGCAUCUUCGGAUGCAGAGGCGGCAGCCUUCGGUGGCGCGAUAGCGCCAACGUUCUCAACUAUGACACGCAAAACGCGUGCUCCUUUGAAUGGAGUUUAUCAUG [U6C U31G G46C A47C G133U]
GGAUCCUCUCGAUCUAACAAAAAAGACAAAUCGGCCACAAAGCUUGAGAGCAUCUUCGGAUGCAGAGGCGGCAGCCUUCGGUGGCGCGAUAGCGCCAACGUUCUCAACUAUGACACGCAAAACGCGUGCUCCGUUGAAUGGAGUUUAUCAUG [U6C U33G]
GGAUCCUCUCGAUCUAACAAAAAAGACAAAUCUGCCACAAAGCAUGAGAGCCUCUUCGGAUGCAGAGGCGGCAGCCUUCGGGGGUGCGAUAGCGCCAACGUUCUCAACUAUGACACGCAACACGCGGGCUCUGUUGAAUGGAGUUUAUCAUG [U6C U44A A52C U82G C85U A121C U127G C132U]
GGAUCCUCUCGAUCUAACAAAAAAGACAAAUCUGCCACAAAGCAUGAGAGCAUCUUCGGAUGCAGAGGCGGCAGCCUUCGGUGGCGAGAUAGCGCCAACGUUCUCAACUAUGACACGCAAAACGCGUGCUCCGAUGCAUGGUGUUUAUAAUG [U6C U44A C87A U134A A137C A142U C149A]
GGAUCCUCUCGAUCUAACAAAAAAGACAAAUCUGCCACAAAGCUGGAGAGCAUCAUCGGAGGCAGAGGCGGCAGCCUUCGGUGGCGCGAUAGCGCCAACGUUCUUAACUAUGACACGCAAAACGCGAGCUCCGUUGAAUGGAGUUUAUCAUG [U6C U45G U55A U61G C105U U127A]
GGAUCCUCUCGAUCUAACAAAAAAGACAAAUCUGCCACAAAGCUUGAGAGCAACUUCGAAUGCAGAGGCGGCAGCCUUCGGUAGCGCGAGAGCGCCAACGUUCUCAACUAUGACACGUAAAACGCGUGCUUCGUUGGCUGGAGUUUAUCAUG [U6C U53A G59A G83A U90G C118U C131U A137G A138C]
GGAUCCUCUCGAUCUAACAAAAAAGACAAAUCUGCCACAAAGCUUGAGAGCAACUUCGGAUGCAGAGGCGUCAGCAUUCGGUGGCGCCAUAGCGCCAACGUUCUCAACUAUGACACGCAAAACGCGUGCUCCGUUGAAUGGACUUUAUCAUG [U6C U53A G71U C76A G88C G143C]
GGAUCCUCUCGAUCUAACAAAAAAGACAAAUCUGCCACAAAGCUUGAGAGCAUCUGCGGAUGCCGAGGCGGCAGCCUUCGGUGGCGCGAUAGCGCCAACGUUCUCAACUAUGACACGCAAAACGCGUGCUCCGUUGAAUGGAUUUUAUCAUG [U6C U56G A64C G143U]
GGAUCGUCUCGCUUUAACAAAAAAGACAAAUCUGCCACAAAGCUUGAGAGCAUCUUCGGAUGCAGAGGCGGCUGCCUUCGCUUGCGCGAUUGCGCCAACGUUCUCAACUAUGUCACGCAAAACGCGUGCUCCGUUGACUGGAGUUUAUCAUG [U6G A12C C14U A73U G81C G83U A91U A113U A138C]
GGAUCGUCUCGCUCUAAUAAAAAACACAAAUCUGCCAUAAAGCUUGAGAGCCACUUCGGAUGCGGAGGGGGCAGCCUUCGGUGGCGCGAUAGCGCGAACGUUCUCAACUAUGACACGAAAAACGCGUGCUCAGUUGAAUGGAGUUUAUCAUG [U6G A12C C18U G25C C38U A52C U53A A64G C69G C96G C118A C132A]
GGAUCGUCUCGGUCUAACAAAAAAGACAAAUCUGCGACAAAGCUUGAGAGCAUCUUCGGAUGCAGAGGCGGGAGCCUUCAGUGGCGCGAUAGCGCCAACGUUCUCAACUAUGACACGCAAAACGCGUGCUCAGUUGAAUGGAGUUUAUCAUG [U6G A12G C36G C72G G80A C132A]
GGAUCGUCUCGAUCUGACAACAAAGUCAAAUCUGCCACAAAUCAUGAGAGCAUCUUCGGAUGCAGAGGCGGCAGCCGUUGGUGGCGCGAUAGCGCCAACGUUCUCAACUAUGACACGCAAAACGCGUUCUCCGUUGAAUGGAGUUUAUCAUG [U6G A16G A21C A26U G42U U44A U77G C79U G128U]
GGAUCGUCUCGAUCUGACAAAAAAGACAUAUCUGCCACAAAGCUUGAGAGCAUUUUCGGAUGCAGAGGCGGCAGCCUUCGGUGGCACGAUAGCGCCAACGUGCUCAACUAUGACACGCAAAACGCGUGCUCCGUUGAAUGGAGUUUAUCAUG [U6G A16G A29U C54U G86A U102G]
GGAUCGUCUCGAUCUUGCAAAAAAGACAAAUCUGCAACAAAGCUUGAGAGCAUCUUCGGAUGAAGAGGCGGCAGCCUUCGGUGGCGCGAUAGCGCCAACGAUCUCAACUAUGACACGCAAAACGCGUCCUCCGUUGAAUGGAGUUUAUCAUG [U6G A16U A17G C36A C63A U101A G128C]
GGAUCGUCUCGAUCUUACAUAAAAGACAAAUCUGCCACAAAGCUUGAGAGCAUGUUCGGAUGCAGGGGCGGCAGCCUUCGGUGGCGCGAUAGCGCCAACGUUCUCAACUAUGACACGCAAAACGCGUGCUCCGUUGAAUGGAGUUUAUCAUG [U6G A16U A20U C54G A66G]
GGAUCGUCUCGAUCUUACAAAUCAGACAAAUCUGCCACAAAGCUUGAGAGCAUCUUCGGAUGCAGAGGCGGCAGCCUUCGGUGGCGCGAUAGGGCCAACGUUCUCAACUAUGACACGCCAAACGCGUGCUCCGUUGAAUGGAGUUUAUCAUG [U6G A16U A22U A23C C93G A119C]
GGAUCGUCUCGAUCUUAUAAAAAAGACAAAUCUGCCACAAAGCUUGAGAGCAUCUUCGGAUGCAGACGCGGCAGCCUUCGGUGGCGCCAUAGCGCCAACGUUCUCAACUAUGACACGCAAAACGCGUGCUCCGUUGAAUGGAGUUUAUCAUG [U6G A16U C18U G67C G88C]
GGAUCGUCUCGAUCUACCAAAAAAGACAAAUCUGCCACAAAGCUUGAGAGCUUCAUCGGAUGCAGAGGCGGCAGCCUUCGGUGGCGCGAUAGCGCAAACGUUCUCAACUAUGACACGCAAAACGCGUGCUCCGUGGAAUGGAGUUUAUCAUG [U6G A17C A52U U55A C96A U135G]
GGAUCGUCUCGAUCUACCAAAAAAGACAAAUCUGCCACAAAGCUUGAGAGCAUCUUCGGAUGCAGAGGCGGCAGGCUUCGGUGGCGCGAUAGCGCCAACGUUCUCAGCUAUGACACGCAAAACGCGUGCUCCGAUGAAUGGAGUUAAUCAUG [U6G A17C C75G A107G U134A U146A]
